Test results taken from a collection of fitness landscapes (doi:10.1016/j.celrep.2020.107928).
Over roughly 81,000 sequences, “one-hybrid fitness for binding parS DNA” has its median near -0.17; the highest 2% begin near 0.51. The list shows a part of the results.

B1: Caulobacter ParB omega fusion; a variant is named by its letters at X, in order, B8GW30 (parent)
chain: MESVVVGEPGMSEGRRGLGRGLSALLGEVDAAPAQAPGEQLGGSREAPIEILQRNPDQPRRTFREEDLEDLSNSIREKGVLQPILVRPSPDTAGEYQIVAGERAWRAAQRAGLKTVPIMVRELDDLAVLEIGIIENVQRADLNVLEEALSYKVLMEKFERTQENIAQTIGKSXSHVANXMRLLXLPDEVQSYLVSGELTAXHARAIAAAADPVALAKQIIEGGLSVRETEALARKAPNLSAGKSKGGRPPRVKDTDTQALESDLSSVLGLDVSIDHRGSTGTLTITYATLEQLDDLCNRLTRGI

Variants of: B1
Assay: one-hybrid fitness for binding parS DNA (scaled: cognate 1, non-cognate 0); higher = stronger binding
Conditions: with parS DNA site
Procedure, shortened: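 Fitness here means the log change in variant-to-wild-type read ratio between plasmids sequenced before and after selection. That scale was set so cognate equals 1 and non-cognate equals 0. The selection was a bacterial one-hybrid screen of Caulobacter ParB libraries, four specificity codons randomised, in E. coli USO carrying a HIS3 reporter with the site 19 bp from the promoter, grown 48 hours at 37°C on M9-minus-histidine with 0.1 mM IPTG and 5 mM 3-AT.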

Variant | one-hybrid fitness for binding parS DNA
DGPT | ≤ 0.2
ERET | ≤ 0.2
YTRY | ≤ 0.2
QSKW | ≤ 0.2
TYLM | ≤ 0.2
LNDG | ≤ 0.2
KSRC | ≤ 0.2
DTHL | ≤ 0.2
RRYA | 0.813
RPPH | ≤ 0.2
WSDS | ≤ 0.2
DSTG | ≤ 0.2
LAKN | ≤ 0.2
CKPG | ≤ 0.2
ARPS | ≤ 0.2
YTWT | ≤ 0.2
DHTS | ≤ 0.2
TAFV | ≤ 0.2
QHLG | ≤ 0.2
FGMC | ≤ 0.2
GRQA | ≤ 0.2
HQVG | ≤ 0.2
SYMA | ≤ 0.2
YCRG | ≤ 0.2

Variant | one-hybrid fitness for binding parS DNA
KINK | ≤ 0.2
ESER | ≤ 0.2
ISKM | ≤ 0.2
VYNW | ≤ 0.2
EQRS | ≤ 0.2
TQKR | ≤ 0.2
SMPY | ≤ 0.2
SRPA | ≤ 0.2
KESL | ≤ 0.2
EHKT | ≤ 0.2
SCVM | ≤ 0.2
KACR | ≤ 0.2
VGRL | ≤ 0.2
DGSE | ≤ 0.2
CSSV | ≤ 0.2
ATSA | ≤ 0.2
ANTE | ≤ 0.2
RPWG | ≤ 0.2
QARM | ≤ 0.2
YRMA | ≤ 0.2
TRKS | ≤ 0.2
NSGG | ≤ 0.2
GDSV | ≤ 0.2
SYPY | ≤ 0.2

Variant | one-hybrid fitness for binding parS DNA
GMEC | ≤ 0.2
SDMS | ≤ 0.2
FFNS | ≤ 0.2
LAHS | ≤ 0.2
QSEV | ≤ 0.2
NIPH | ≤ 0.2
KSPK | ≤ 0.2
IHAC | ≤ 0.2
WLWT | ≤ 0.2
YWES | ≤ 0.2
RKYW | ≤ 0.2
AMSI | ≤ 0.2
GMFV | ≤ 0.2
QSYN | ≤ 0.2
DHKV | ≤ 0.2
TTPT | ≤ 0.2
CHFC | ≤ 0.2
GRHR | ≤ 0.2
SWWT | ≤ 0.2
DYWC | 0.205
PTEF | ≤ 0.2
DASG | ≤ 0.2
YQSL | ≤ 0.2
FPMC | ≤ 0.2

Variant | one-hybrid fitness for binding parS DNA
QKFY | ≤ 0.2
FIYG | ≤ 0.2
ELGC | ≤ 0.2
QHIA | ≤ 0.2
LCQV | ≤ 0.2
CRPF | ≤ 0.2
PGTT | ≤ 0.2
MIKS | ≤ 0.2
DLPR | ≤ 0.2
GLAC | ≤ 0.2
HCLS | ≤ 0.2
AMQD | ≤ 0.2
MCVS | ≤ 0.2
QLNF | ≤ 0.2
KSVY | ≤ 0.2
MVQP | 0.256
TIAA | ≤ 0.2
WSKA | ≤ 0.2
SLVA | ≤ 0.2
TTAQ | ≤ 0.2
SYLM | ≤ 0.2
THGM | ≤ 0.2
QAHN | ≤ 0.2
IRLM | ≤ 0.2

Variant | one-hybrid fitness for binding parS DNA
TCLM | ≤ 0.2
LCES | ≤ 0.2
YKEC | ≤ 0.2
MTES | ≤ 0.2
RPNA | ≤ 0.2
SSGG | ≤ 0.2
KWDS | ≤ 0.2
VCWG | ≤ 0.2
ILHS | ≤ 0.2
KVSC | ≤ 0.2
VFPY | ≤ 0.2
PFQF | ≤ 0.2
PCSI | ≤ 0.2
VHYL | ≤ 0.2
YPWS | ≤ 0.2
GFQK | ≤ 0.2
KTGG | ≤ 0.2
STQL | ≤ 0.2
PNMR | ≤ 0.2
LYFC | ≤ 0.2
KGKC | ≤ 0.2
YYAC | ≤ 0.2
ENAC | ≤ 0.2
SHNY | ≤ 0.2

Variant | one-hybrid fitness for binding parS DNA
LSWW | ≤ 0.2
PADK | ≤ 0.2
LLHA | ≤ 0.2
MAHT | ≤ 0.2
DIHI | ≤ 0.2
RWYG | 0.714
QFAC | ≤ 0.2
LYKD | ≤ 0.2
WELS | ≤ 0.2
CPVT | ≤ 0.2
RERV | ≤ 0.2
NDAV | ≤ 0.2
MQCC | ≤ 0.2
ALCN | ≤ 0.2
CSQC | ≤ 0.2
FSAG | ≤ 0.2
IYRF | ≤ 0.2
IWRK | ≤ 0.2
TNIL | ≤ 0.2
YRAN | ≤ 0.2
NHRI | ≤ 0.2
YYYR | ≤ 0.2
QRYH | ≤ 0.2
IARW | ≤ 0.2

Variant | one-hybrid fitness for binding parS DNA
VTWI | ≤ 0.2
NSLH | ≤ 0.2
QPCY | ≤ 0.2
RYSN | 0.384
TSIV | ≤ 0.2
LYST | ≤ 0.2
QANK | ≤ 0.2
RRFK | ≤ 0.2
FCRS | ≤ 0.2
GRVI | ≤ 0.2
SYKK | ≤ 0.2
QAMW | ≤ 0.2
SMQM | ≤ 0.2
RCRF | 0.427
VNKE | ≤ 0.2
MNLI | ≤ 0.2
LAPL | ≤ 0.2
GAFV | ≤ 0.2
THRG | ≤ 0.2
SMIR | ≤ 0.2
PLSW | ≤ 0.2
LSTY | ≤ 0.2
FAWS | ≤ 0.2
CRVR | ≤ 0.2

Variant | one-hybrid fitness for binding parS DNA
TLVK | ≤ 0.2
TSMF | ≤ 0.2
MFVG | ≤ 0.2
PYLT | ≤ 0.2
FSDT | ≤ 0.2
LLFI | ≤ 0.2
WSTW | ≤ 0.2
RCGH | 0.217
VQKA | ≤ 0.2
VAAS | ≤ 0.2
CFLE | ≤ 0.2
NGAG | ≤ 0.2
LIWG | ≤ 0.2
TWLQ | ≤ 0.2
HRSY | ≤ 0.2
DVPV | ≤ 0.2
QDQM | ≤ 0.2
YVKG | ≤ 0.2
CQSV | ≤ 0.2
WRAS | ≤ 0.2
CQYG | ≤ 0.2
LPDD | ≤ 0.2
RDTY | ≤ 0.2
TWNN | ≤ 0.2

Variant | one-hybrid fitness for binding parS DNA
VVST | ≤ 0.2
QCYH | ≤ 0.2
QSNN | ≤ 0.2
SCAL | ≤ 0.2
MVFD | ≤ 0.2
MRRY | ≤ 0.2
WDNG | ≤ 0.2
RVQE | ≤ 0.2
HLFA | ≤ 0.2
NLGC | ≤ 0.2
QTIS | ≤ 0.2
QYEE | ≤ 0.2
AEVD | ≤ 0.2
GLKV | ≤ 0.2
SACD | 0.214
PWDA | ≤ 0.2
TLIH | ≤ 0.2
ATAA | ≤ 0.2
LAGW | ≤ 0.2
QEER | ≤ 0.2
DFPS | ≤ 0.2
QYKN | ≤ 0.2
IVVR | ≤ 0.2
AMHW | ≤ 0.2

Variant | one-hybrid fitness for binding parS DNA
RSCP | ≤ 0.2
VIMS | ≤ 0.2
QSLE | ≤ 0.2
QESE | ≤ 0.2
QTNG | ≤ 0.2
TLPN | ≤ 0.2
RITL | ≤ 0.2
NAWT | ≤ 0.2
NDAL | ≤ 0.2
FLEL | ≤ 0.2
MHSS | ≤ 0.2
QAVW | ≤ 0.2
LLHM | ≤ 0.2
QYDW | ≤ 0.2
FAYS | ≤ 0.2
DWHW | ≤ 0.2
VVML | ≤ 0.2
QDLE | ≤ 0.2
SVMR | ≤ 0.2
DLRM | ≤ 0.2
RVYS | 1.04
GMQF | ≤ 0.2
YPGS | ≤ 0.2
TYLY | ≤ 0.2

Variant | one-hybrid fitness for binding parS DNA
RDMM | ≤ 0.2
QGFV | ≤ 0.2
RLWD | ≤ 0.2
VNIR | ≤ 0.2
KRMC | ≤ 0.2
ASSW | ≤ 0.2
QHLK | ≤ 0.2
QMMQ | ≤ 0.2
RYYD | ≤ 0.2
TPEV | ≤ 0.2
QRTA | ≤ 0.2
DLRC | ≤ 0.2
ESPT | ≤ 0.2
RYTS | 0.904
QMAG | ≤ 0.2
DNKD | ≤ 0.2
DMYI | ≤ 0.2
GRSE | ≤ 0.2
QVAH | ≤ 0.2
RSEV | ≤ 0.2
ILLL | ≤ 0.2
SNDT | ≤ 0.2
LPAA | ≤ 0.2
SYLI | ≤ 0.2

Variant | one-hybrid fitness for binding parS DNA
RTLA | 0.595
VSAW | ≤ 0.2
MHSC | ≤ 0.2
YASA | ≤ 0.2
VHII | ≤ 0.2
RFVC | 0.753
YPAV | ≤ 0.2
WCNL | ≤ 0.2
QPCL | ≤ 0.2
NRVM | ≤ 0.2
STSD | ≤ 0.2
QTAQ | ≤ 0.2
YNKS | ≤ 0.2
RMDP | ≤ 0.2
CFKG | ≤ 0.2
NESM | ≤ 0.2
VGER | ≤ 0.2
DLYD | ≤ 0.2
REYM | ≤ 0.2
SYGM | ≤ 0.2
LPLY | ≤ 0.2
HVWM | ≤ 0.2
AGDD | ≤ 0.2
ASQY | ≤ 0.2

Variant | one-hybrid fitness for binding parS DNA
KHQP | ≤ 0.2
MRRK | ≤ 0.2
IPRG | ≤ 0.2
ATLG | ≤ 0.2
WMAS | ≤ 0.2
RKAN | 0.343
KTPH | ≤ 0.2
SYSM | ≤ 0.2
DTPI | ≤ 0.2
WHGV | ≤ 0.2
ELTT | ≤ 0.2
GSSW | ≤ 0.2
NQTA | ≤ 0.2
YSLA | ≤ 0.2
LRAY | ≤ 0.2
QCWC | ≤ 0.2
HYWG | ≤ 0.2
ACPA | ≤ 0.2
